Measured values published in article PMC3526545, “New perspectives for natural antimicrobial peptides: application as antinflammatory drugs in a murine model” (BMC Immunology, 2012).

System: Staphylococcus epidermidis strains
Test: Antibiotic susceptibility, disk diffusion method on Mueller-Hinton agar
Assay type: cell-based
Details: disk diffusion, Mueller-Hinton agar, NCCLS guidelines
[1] = strain SE, disk content as in antibiotic code

Structure (SMILES) | antibiotic susceptibility test (strain 2/2) | antibiotic susceptibility test (strain 3/28) | antibiotic susceptibility test (strain 5/6) | antibiotic susceptibility test (strain 5/8) | antibiotic susceptibility test (strain 5/25) | antibiotic susceptibility test (strain 9/1) | antibiotic susceptibility test (strain 10/28) | antibiotic susceptibility test (strain 12/14) | antibiotic susceptibility test (strain 12/26) | antibiotic susceptibility test [1]
CN(C)[C@@H]1C(O)=C(C(N)=O)C(=O)[C@@]2(O)C(O)=C3C(=O)c4c(O)ccc(Cl)c4[C@@](C)(O)[C@H]3C[C@@H]12 [A30, chlorotetracycline] | S | I | I | R | S | S | R | R | S | I
CC1(C)S[C@@H]2[C@H](NC(=O)[C@H](N)c3ccccc3)C(=O)N2[C@H]1C(=O)O [AM10, ampicillin] | R | S | R | R | R | R | R | R | R | R
CC1(C)S[C@@H]2[C@H](NC(=O)[C@H](N)c3ccc(O)cc3)C(=O)N2[C@H]1C(=O)O [AMX25, amoxicillin] | R | S | I | I | R | R | R | R | R | R
C[C@H]1[C@H](NC(=O)/C(=N\OC(C)(C)C(=O)O)c2csc(N)n2)C(=O)N1S(=O)(=O)O [ATM30, aztreonam] | R | R | R | R | R | R | R | R | R | R
CC(C)(O/N=C(\C(=O)N[C@@H]1C(=O)N2C(C(=O)[O-])=C(C[n+]3ccccc3)CS[C@H]12)c1csc(N)n1)C(=O)O [CAZ30, ceftazidime] | I | I | S | I | I | I | I | S | I | S
CC1(C)S[C@@H]2[C@H](NC(=O)C(C(=O)O)c3ccccc3)C(=O)N2[C@H]1C(=O)O (stereo partly shown) [CB100, carbenicillin] | R | R | I | I | R | I | R | I | R | R
O=C(Cc1cccs1)N[C@@H]1C(=O)N2C(C(=O)[O-])=C(C[n+]3ccccc3)CS[C@H]12 [CD30, cephaloridine] | R | S | R | R | R | R | R | R | R | R
Cc1onc(-c2ccccc2Cl)c1C(=O)N[C@@H]1C(=O)N2[C@@H]1SC(C)(C)[C@@H]2C(=O)O [CX1, cloxacillin] | R | R | R | R | R | R | R | R | R | R
CC(=O)O[C@H]1C[C@@]2(C)[C@@H](C[C@@H](O)[C@H]3[C@@]4(C)CC[C@@H](O)[C@@H](C)[C@@H]4CC[C@@]32C)/C1=C(\CCC=C(C)C)C(=O)O [FD10, fusidic acid] | S | R | I | S | S | S | S | S | S | R
C[C@@H]1O[C@@H]1P(=O)(O)O [FF50, fosfomycin] | R | R | R | S | I | S | S | R | S | S
O=C1CN(/N=C/c2ccc([N+](=O)[O-])o2)C(=O)N1 [FM300, nitrofurantoin] | S | S | S | S | S | S | S | S | S | R
CO[C@@]1(NC(=O)Cc2cccs2)C(=O)N2C(C(=O)O)=C(COC(N)=O)CS[C@@H]21 [FOX30, cefoxidin] | R | S | I | I | S | S | S | S | S | I
CNC(C)C1CCC(N)C(OC2C(N)CC(N)C(OC3OCC(C)(O)C(NC)C3O)C2O)O1 (stereo not shown) [Gentamicin, gentamicin] | I | R | I | R | I | I | R | R | R | R
C[C@@H](O)[C@H]1C(=O)N2C(C(=O)O)=C(SCCN=CN)C[C@H]12 [IPM10, imipenem] | S | S | S | S | S | S | S | S | S | S
Cc1ncc([N+](=O)[O-])n1CCO [M80, metronidazole] | R | R | R | R | R | R | R | R | R | R
CCC[C@@H]1C[C@@H](C(=O)N[C@@H]([C@H]2O[C@H](SC)[C@H](O)[C@@H](O)[C@H]2O)[C@@H](C)O)N(C)C1 [MY2, lincomycin] | R | R | I | R | R | S | S | S | S | R
CC1(C)S[C@@H]2[C@H](NC(=O)[C@H](NC(=O)N3CCN(S(C)(=O)=O)C3=O)c3ccccc3)C(=O)N2[C@H]1C(=O)O [MZ75, mezlocillin] | R | S | R | R | R | R | R | R | R | R
CO[C@@H]1[C@@H](OC(N)=O)[C@@H](O)[C@H](Oc2ccc3c(O)c(NC(=O)c4ccc(O)c(CC=C(C)C)c4)c(=O)oc3c2C)OC1(C)C [NB30, novobiocin] | S | S | S | S | S | S | S | S | S | R
CCN[C@@H]1C[C@H](N)[C@@H](O[C@H]2OC(CN)=CC[C@H]2N)[C@H](O)[C@H]1O[C@H]1OC[C@](C)(O)[C@H](NC)[C@H]1O [NET30, netilmycin] | I | I | I | I | I | S | I | I | I | R
